About 260 (0.074%) of roughly 350,000 compounds were called active. Inconclusive results, whose numbers are uncertain, are shown with a selection of clear calls. Calls come from the whole dose curve; as a rule, active = well fitted inhibition curve with a large enough effect; inconclusive = small, poorly fitted or top-dose-only effect; inactive = no such curve, though single readings can be large or run the other way. Potencies beside an inconclusive call are fits to weak or partial responses and may not hold up.
Molecular target: Ferritin light chain (Equus caballus) (UniProt P02791)
UniProt P02791, sequence (P02791 whole entry, looked up): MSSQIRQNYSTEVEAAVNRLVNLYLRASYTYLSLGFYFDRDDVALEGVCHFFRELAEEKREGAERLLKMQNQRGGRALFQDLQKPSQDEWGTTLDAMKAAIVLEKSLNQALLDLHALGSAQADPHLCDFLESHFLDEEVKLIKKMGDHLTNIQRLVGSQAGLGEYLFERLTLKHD
Assay: qHTS Assay for Identification of Novel General Anesthetics; note: nearly all actives have a fitted effect of over 20% in size
Conditions: apoferritin/1-aminoanthracene competitive binding, fluorescence; series mostly up to 77.5 µM
Outline: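 Horse-spleen apoferritin (10 uM) in 50% saturated 1-aminoanthracene in PBS was incubated 10 min at room temperature with compound. Fluorescence (ex 380, em 535 nm) was normalized to free and bound 1-AMA, with concentration-response fitted by a four-parameter Hill equation.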
Potency is the fitted concentration of half-maximal effect; tags give direction and shape of the fitted curve.

| Compound | Potency |
| --- | --- |
| C=CCn1c2ccccc2c2nnc(SCc3[nH]c(=O)[nH]c3C(=O)CCCCC(=O)OCC)nc21 | inconclusive: 28.2 µM [inhibitor, single point] |
| N#CC(=C1CCCC1)c1nc(-c2ccccc2)cs1 | inconclusive: 22.4 µM [inhibitor, partial curve] |
| Cc1ccc(-c2cc(C(=O)Oc3ccccc3Cl)no2)cc1C | inconclusive: 25.1 µM [inhibitor, partial curve] |
| CN(C)S(=O)(=O)c1ccc(S(=O)(=O)N2CCCC(C(=O)NC3CC3)C2)cc1 (stereo not drawn) | inactive |
| COc1ccc(N(CC(=O)N2CCc3ccccc32)S(=O)(=O)c2c(C)n[nH]c2C)cc1 | inconclusive: 28.2 µM [inhibitor, partial curve] |
| CCc1ccc(-c2nc(CS(=O)CC(=O)NCc3ccccc3)c(C)o2)cc1 (stereo not drawn) | inconclusive: 35.5 µM [inhibitor, single point] |
| COc1ccc(NC(=O)ON=C2c3ccccc3-c3ccccc32)cc1 | inconclusive: 31.6 µM [inhibitor, partial curve] |
| O=C(NCCSC1CCCCC1)c1ccccc1 | inconclusive: 20 µM [inhibitor, partial curve] |
| C=CCc1cccc2cc(C(=O)N(CC)CC)c(=O)oc12 | inconclusive: 31.6 µM [inhibitor, partial curve] |
| Cn1cc(C(=O)NCCN2CCN(c3cccc(Cl)c3)CC2)c2c3ccccc3n(C)c2c1=O | inactive |
| Nc1ccccc1Sc1ccccc1[N+](=O)[O-] | inconclusive: 35.5 µM [inhibitor, single point] |
| COc1ccc(CNC(=O)c2cc3c(=O)n4ccccc4nc3n(Cc3cccnc3)c2=N)cc1 | inactive |
| COc1c(N2CCN[C@H](C)C2)c(F)cc2c(=O)c(C(=O)O)cn(C3CC3)c12 | inactive |
| CC1(C)C2CCC(C2)C1(C)NC(=O)CNCc1cccs1 (stereo not drawn) | inconclusive: 25.1 µM [inhibitor, partial curve] |
| COc1ccc(CCNC(=O)CCSCc2ccccc2Cl)cc1OC | inconclusive: 15.8 µM [inhibitor, partial curve, poor fit] |
| CC12CCC(=O)N1C(C(=O)Nc1cccc(F)c1)CS2 (stereo not drawn) | inconclusive: 25.1 µM [inhibitor, partial curve] |
| CCOc1ccc2oc(C(=O)NNC(=O)c3csc(N4CCOCC4)n3)c(C)c2c1 | inconclusive: 31.6 µM [inhibitor, partial curve] |
| Cc1ccc(C(=O)Nc2ccc3cn[nH]c3c2)cc1S(=O)(=O)N1CCCCC1 | inconclusive: 14.1 µM [inhibitor, partial curve] |

— PubChem BioAssay AID485281 (National Center for Advancing Translational Sciences (NCATS), 2010)
